# Source: PubChem BioAssay (Tox21)
# Inconclusive means that the source gave no clear call. Such entries were picked first, then a sample of the others. For some of these results: Where the call is inconclusive, the potency comes from a doubtful curve fit. Activity calls are given as the source filed them. Unless noted, the call rests on the fitted dose curve; in most records, active means well fitted curve in the direction sought with a large enough effect in the repeat runs; inconclusive means weak or mixed curves; inactive means no such curve, though single readings can be large; an effect the other way counts as inactive or inconclusive.
# Legend:
# [1] = qHTS assay to identify small molecule agonists of H2AX - cell viability counter screen (AID 1224847; calls by dose curve; further: nearly all actives have a fitted effect of over 30% in size; further: potency means the concentration at half of the fitted maximal effect)
# Method in brief: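 Quantitative HTS viability measurement: CHO-K1 wild-type cells in serum (10% FBS) medium, short 3 hr drug exposure at 37C with 0.76% DMSO, CellTiter-Glo luminescent detection.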
# [2] = qHTS RealTime-Glo MT Cell Viability Assay in HEK293 cells - 16 hour (AID 1224872); further: nearly all actives have a fitted effect of over 50% in size; further: potency means the concentration at half of the fitted maximal effect
# Method in brief: (§1)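 Nonlytic real-time viability readout: viable cells convert prosubstrate to NanoLuc substrate, giving luminescence proportional to live cell number. HEK293, 600 cells/well, compound added after 5 h, continuous culture at 37 C.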
# [3] = qHTS RealTime-Glo MT Cell Viability Assay in HepG2 cells - 8 hour (AID 1224873); further: potency means the concentration at half of the fitted maximal effect; nearly all actives have a fitted effect of over 55% in size
# Method in brief: (§2)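 HepG2 cells mixed with RealTime-Glo MT reagents (NanoLuc plus cell-permeant prosubstrate) were seeded at 600 cells/well, incubated 5 h at 37 C/5% CO2, then pinned with compounds in DMSO; nonlytic luminescence tracked viability during 40 h treatment.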
# [4] = A CellTox Green Cytotoxicity Assay to monitor cytotoxicity in HEK293 cells - 40 hour (AID 1224871); further: nearly all actives have a fitted effect of over 45% in size; further: potency means the concentration at half of the fitted maximal effect
# Method in brief: (§3)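 Cytotoxicity was tracked continuously in HEK293 cells by a DNA-binding dye excluded from viable cells. Compounds were transferred in DMSO 5 h after seeding; fluorescence was recorded at intervals up to 40 h.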
# [5] = A CellTox Green Cytotoxicity Assay to monitor cytotoxicity in HEK293 cells - 32 hour (AID 1224881); further: potency means the concentration at half of the fitted maximal effect; nearly all actives have a fitted effect of over 40% in size
# Method in brief: as §3
# [6] = qHTS RealTime-Glo MT Cell Viability Assay in HepG2 cells - 40 hour (AID 1224870); further: nearly all actives have a fitted effect of over 50% in size
# Method in brief: as §2
# [7] = A CellTox Green Cytotoxicity Assay to monitor cytotoxicity in HepG2 cells - 40 hour (AID 1224879); further: nearly all actives have a fitted effect of over 40% in size; further: potency means the concentration at half of the fitted maximal effect
# Method in brief: (§4)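 Real-time, homogeneous cytotoxicity readout: dead-cell DNA staining by CellTox Green in HepG2 monolayers, fluorescence measured at timed intervals up to 40 h of continuous compound exposure.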
# [8] = A CellTox Green Cytotoxicity Assay to monitor cytotoxicity in HEK293 cells - 24 hour (AID 1224875); further: series mostly up to about 77 µM; nearly all actives have a fitted effect of over 45% in size
# Method in brief: as §3
# [9] = qHTS RealTime-Glo MT Cell Viability Assay in HEK293 cells - 32 hour (AID 1224868); further: potency means the concentration at half of the fitted maximal effect; nearly all actives have a fitted effect of over 50% in size
# Method in brief: as §1
# [10] = qHTS RealTime-Glo MT Cell Viability Assay in HEK293 cells - 40 hour (AID 1224874); details: RealTime-Glo luminescence; max response: active compounds read low; further: potency means the concentration at half of the fitted maximal effect; nearly all actives have a fitted effect of over 50% in size
# Method in brief: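 Nonlytic bioluminescent viability monitoring. HEK293 at 600 cells/well with reagent; 5 h settle; compound transfer by pintool; plates held at 37 C and read at set time points.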
# [11] = A CellTox Green Cytotoxicity Assay to monitor cytotoxicity in HepG2 cells - 24 hour (AID 1224878); further: potency means the concentration at half of the fitted maximal effect; nearly all actives have a fitted effect of over 45% in size
# Method in brief: as §4
# Tags describe the fitted curve by direction and shape.
compound,measurement,setting,value
Cc1cc(S(=O)(=O)O)ccc1N=Nc1c(O)ccc2ccccc12,Potency,[1],"inconclusive: 71.3 µM [cytotoxic, partial curve]"
same,Potency,[2],inactive
same,Potency,[3],"inconclusive: 34.7 µM [falling, partial curve, poor fit]"
C#C[C@]1(OC(C)=O)CC[C@H]2[C@@H]3CCC4=C[C@@H](OC(C)=O)CC[C@@H]4[C@H]3CC[C@@]21C,Potency,[1],"inconclusive: 55.2 µM [cytotoxic, single point]"
same,Potency,[4],"inconclusive: 26.8 µM [activator, single point]"
same,Potency,[2],"inconclusive: 23.9 µM [cytotoxic, partial curve]"
same,Potency,[5],"inconclusive: 26.8 µM [activator, single point]"
O=C(O)c1cc(-c2ccc(F)cc2F)ccc1O,Potency,[1],"inconclusive: 55.2 µM [rising, single point]"
same,Potency,[6],inactive
CCCCCCCCCC(=O)O,Potency,[1],inactive
same,Potency,[4],inactive
same,Potency,[7],inactive
C1COCCO1,Potency,[1],inactive
same,Potency,[4],inactive
same,Potency,[2],inactive
same,Potency,[8],inactive
OC12N=C(c3ccccc3)SC1Cc1cc(Cl)ccc12 (configuration not stated),Potency,[1],"inconclusive: 101 µM [cytotoxic, partial curve]"
same,Potency,[9],"inconclusive: 49 µM [rising, partial curve]"
same,Potency,[2],"inconclusive: 27.5 µM [rising, partial curve, poor fit]"
same,Potency,[10],"inconclusive: 54.9 µM [rising, single point]"
same,Potency,[11],"inconclusive: 54.9 µM [activator, single point]"
same,Potency,[7],"inconclusive: 54.9 µM [activator, single point]"
